# Source: PubChem BioAssay AID1508624 (National Center for Advancing Translational Sciences (NCATS), 2021)
# The campaign covered roughly 48,000 compounds. About 120 (0.25%) were called active. Not shown: some 4% with an inconclusive outcome. Calls follow the shape of the dose curve; as a rule, active = well fitted activation curve with a large enough effect; inconclusive = small, poorly fitted or top-dose-only effect, or another doubt; inactive = no such curve, though single readings can be large or run the other way. This is one part of the list.
# Assay: Primary qHTS for Identification of Small Molecule Activators of Huntingtin-Antisense Promoter Activity; also: nearly all actives have a fitted effect of over 55% in size
# Conditions: HEK293 HTT-AS promoter firefly luciferase reporter, 24 h; series mostly up to 57.5 µM; activity change, positive = activation: at the top concentration
# Summary of the method: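 Luminescence was read after Dual-Glo reagent and a 10 min room-temperature incubation. Values were normalized to vehicle (0% activity) and zero RLU (-100% activity). Reporter HEK293 cells had been exposed to compounds (up to 57.5 uM final) for 24 h.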
row,SMILES,"activity change, positive = activation"
1,O=C(Nc1cc(Cl)cc(Cl)c1)c1ccc(F)c(S(=O)(=O)N2CCCC2)c1,inactive: -16.9%
2,CCc1ccc(CN(Cc2ccco2)c2cnc(S(C)(=O)=O)nc2C(=O)Nc2ccc(C)c(Cl)c2)cc1,inactive: -22%
3,Cc1ccc(NC(=O)CN(C)S(=O)(=O)c2cccc3cccnc23)c(C)c1,inactive: -10.5%
4,COc1ccc(Cn2c(SCc3ccc(C(=O)NC4CCCCC4)cc3)nc3cccnc32)cc1,inactive: -34.4%
5,CC(=O)Nc1ccc2nc(SCCOc3ccc(C)cc3)sc2c1,inactive: -6.95%
6,COc1ccc(NC(=O)c2sc3nc(C)c(C(=O)Nc4ccc(C)cc4C)c(-c4sccc4C)c3c2N)cc1,inactive: -15.1%
7,CC1CCc2c(N3CCC(O)CC3)c(F)cc3c(=O)c(C(=O)O)cn1c23 (configuration not stated),inactive: -5.35%
8,COc1ccccc1-c1cc(C(F)(F)F)nc(S(=O)(=O)CCCC(=O)Nc2ccccc2F)n1,inactive: -94.8%
9,CCc1c(CN2CCN(c3ccc(F)cc3)CC2)csc1C,inactive: -19.5%
10,Cc1ccc(CN2CCC(CNC(=O)Nc3ccccc3F)CC2)cc1,inactive: -7.84%
11,COc1ccc(C)cc1Nc1nc2c(S(=O)(=O)c3cc(C)ccc3C)nnn2c2ccsc12,inactive: -8.56%
12,COCCNc1nc2c(S(=O)(=O)c3ccccc3)nnn2c2ccc(Cl)cc12,inactive: -2.79%
13,COc1cc2c(cc1NC(=O)COc1cc(C)cc(C)c1)oc1ccccc12,inactive: 9.91%
14,Cc1cccc(-c2nc3cc(NC(=O)c4ccc(OCC(C)C)cc4)ccc3o2)c1,inactive: -4.1%
15,Cc1ccn2c(c1)nc(=O)c1cc(S(=O)(=O)N3CCCCC3)ccc12,inactive: -1.17%
16,COc1ccc(NC(=O)c2cnc(N3CCOCC3)c3ccccc23)cc1OC,inactive: -25%
17,COc1cccc(CCNC(=O)c2ccc(Cn3c(SCc4ccccc4)nc4cccnc43)cc2)c1,inactive: -13.2%
18,CCOc1ccc(NC(=O)NC(C)c2c(-n3cccc3)sc3c2CCN(CC)C3)cc1 (configuration not stated),inactive: 1.4%
19,Cc1cccn2c(=O)c3cc(C(=O)NC(C)C)n(C)c3nc12,inactive: 1.46%
20,O=C(Nc1ccc2nc(SCCOc3ccccc3)sc2c1)c1ccco1,inactive: 0.597%
21,COc1ccc(-c2nc3ccccc3n2Cc2ccc(C(C)C)cc2)cc1,inactive: -22.7%
22,Cc1ccccc1NC(=O)C1CCN(C(=O)c2ccc(F)cc2)CC1,inactive: -3.81%
23,CCOc1ccc(NC(=O)Cn2cc(C(=O)c3ccc(F)cc3)c(=O)c3cc4c(cc32)OCO4)cc1,inactive: -11.2%
24,Cc1nn2c(=O)cc(COC(=O)c3ccc(NC(=O)CCc4ccccc4)cc3)nc2s1,inactive: 11.9%
25,Cc1cccc(OCCn2c(SCC(N)=O)nc3ccccc32)c1,inactive: 1.82%

row,SMILES,"activity change, positive = activation"
1,COc1ccc(CCNC(=O)C(=O)NCC(c2ccco2)S(=O)(=O)c2cccs2)cc1 (configuration not stated),inactive: -22.7%
2,CCC(Sc1nc2cc3c(cc2c(=O)n1CCCCCC(=O)NCc1ccc2c(c1)OCO2)OCO3)C(=O)NCCCOC (configuration not stated),inactive: -3.98%
3,CC(C)C(=O)Nc1ccccc1C(=O)OCc1cc(=O)n2nc(C3CC3)sc2n1,inactive: -24.2%
4,O=C(Nc1cccc(Br)c1)Nc1nc2c(s1)CCCCCC2,inactive: -1.66%
5,O=C(CN1C(=O)c2cccnc2Oc2ccc(Cl)cc21)NCCCN1CCCCC1,inactive: -5.57%
6,COc1cc2c(C(=O)N3CCN(c4cccc(Cl)c4)CC3)cn(C)c(=O)c2cc1OC,inactive: -32.2%
7,CCOc1ccccc1C(=O)N1CCN(CCc2ccccn2)CC1,"inactive: 2.43% [at 11.5 µM, percent change from vehicle, -100% = no light]"
8,Cc1ccc(C2=Nc3ccccc3N(CC(=O)Nc3ccccc3C)C(=O)C2)cc1C,inactive: 25.9%
9,Cc1ccc(CNC(=O)NC2COc3ccccc3C2)cc1 (configuration not stated),inactive: 0.672%
10,Cc1c(Cl)cccc1NC(=O)Cn1nc(C(F)(F)F)c2c1CCC2,inactive: -17.8%
11,Cc1cc(C)c(NC(=O)Cn2c(=O)n(CCc3ccccc3)c(=O)c3ccccc32)c(C)c1,inactive: -5.07%
12,Cc1ccc(N2CCn3c2nc2c3c(=O)n(CCCc3ccccc3)c(=O)n2C)cc1,inactive: -11.7%
13,COc1ccc(OC)c(CNC(=O)c2ccccc2NC(=O)c2nsc3ccccc23)c1,inactive: 1.33%
14,Clc1ccc(COC(Cn2ccnc2)c2ccc(Cl)cc2Cl)c(Cl)c1 (configuration not stated),inactive: -22.2%
15,COc1ccc(CCNC(=O)c2c(C)oc3nc(C)nc(N4CCOCC4)c23)cc1OC,inactive: -2.28%
16,Cc1cc(C)n(-c2nc3ccccc3nc2Nc2cccc(C(=O)NCCc3ccccc3)c2)n1,inactive: -1.33%
17,Cc1ccc(NC(=O)C2CCCN(S(=O)(=O)c3cccc4cccnc34)C2)c(Br)c1 (configuration not stated),inactive: -17.1%
18,CC1=C(C(=O)Nc2ccccc2)C(c2cccc(O)c2)n2nc(-c3ccccc3Cl)nc2N1 (configuration not stated),inactive: -24%
19,Cn1cc(S(=O)(=O)N2CCCCCC2)cc1C(=O)NCc1ccc(Cl)cc1,inactive: -38%
20,Cc1onc(-c2ccccc2Cl)c1C(=O)Oc1ccc(Br)cc1,inactive: -14.9%
21,CCN1CCOC(=O)C1CC(=O)Nc1cccc(OC)c1 (configuration not stated),inactive: -16%
22,Cc1ccc(-n2nnnc2CNC(=O)c2ccc(F)cc2)cc1C,inactive: -10.6%
23,COc1ccccc1-c1nn2c(=O)cc(CN3CCN(S(=O)(=O)c4ccc(C)cc4)CC3)nc2s1,inactive: -7.46%
24,Cc1cc(=O)n(-c2ccccc2)n1C,inactive: 3.74%
25,CCOC(=O)c1ccc(NC(=O)C2Cc3ccccc3C(=O)O2)cc1 (configuration not stated),inactive: 18.6%

row,SMILES,"activity change, positive = activation"
1,Cc1cccc(-c2noc(CNC(=O)c3ccco3)n2)c1,inactive: 2.16%
2,Brc1ccc(CNCCCSc2nnnn2-c2ccccc2)cc1,inactive: -16.6%
3,CC(=O)Nc1ccc(C)cc1-c1nc2ccccc2n(CC(=O)c2ccc(Cl)cc2)c1=O,inactive: -11.3%
4,CC(=O)N(Cc1cccnc1)c1nc2ccc(F)cc2s1,inactive: 2.37%
5,COc1cccc2cc(-c3cn4c(n3)sc3cc(F)ccc34)c(=O)oc12,inactive: -1.83%
6,CCOc1ccc(-c2noc(CSc3nnc(-c4ccccc4)n3-c3ccccc3)n2)cc1,inactive: -38.3%
7,O=C(CCn1c(=O)c2cccn2c2cccnc21)NCc1ccccc1Br,inactive: -6.54%
8,CN1C(=O)c2ccccc2Sc2ccc(NC(=O)Cc3c(F)cccc3Cl)cc21,inactive: -41.5%
9,CCC(CC)C(=O)Nc1ccc(C(=O)OCc2cc(=O)n3nc(C4CC4)sc3n2)cc1,inactive: 14.1%
10,CCC(=O)Nc1ccc(C)cc1-c1nc2ccccc2n(C(C)C(=O)Nc2ccccc2CC)c1=O (configuration not stated),inactive: -20.6%
11,Cc1ccc(-n2nc(C(=O)N3CCN(c4ccccc4F)CC3)c3c4ccccc4n(C)c3c2=O)cc1,inactive: 3.32%
12,COc1cccc(CNC(=O)CN2N=C(c3ccc(C)cc3)CCC2=O)c1,inactive: 2.86%
13,Cc1ccc(N(C)S(=O)(=O)c2ccc3c(c2)C(C)(C)C(=O)N3C)cc1C,inactive: -32.4%
14,O=C(NCc1ccccc1Cl)c1cccn1-c1nnc(N2CCCCC2)s1,inactive: -15%
15,CCC(C(=O)N1CCN(c2cc(Cl)ccc2C)CC1)n1nc(C)c2sc3ccccc3c2c1=O (configuration not stated),inactive: -7.75%
16,CCN(CC)CCCNC(=O)CCCn1c(=O)[nH]c2ccc(Br)cc2c1=O,inactive: -4.4%
17,CC(=O)c1ccccc1NS(=O)(=O)c1cc2c(cc1C)NC(=O)CO2,inactive: -2.69%
18,CCN(c1ccc(OC)cc1)S(=O)(=O)c1nnc(NC(=O)COc2ccc(F)cc2)s1,inactive: -34.9%
19,CC(C)CC(=O)NCC(c1ccc2c(c1)OCO2)N1CCN(c2ccccc2F)CC1 (configuration not stated),inactive: -15.3%
20,Cc1ccccc1N(C)C(=O)c1noc2c1COc1ccccc1-2,inactive: 20.9%
21,Cc1cccc(-c2nc(SCC(=O)NCC3CCCO3)c3c(=O)n(C)c(=O)n(C)c3n2)c1 (configuration not stated),inactive: 5.28%
22,CCCN(CCc1cccs1)[C@H]1CCc2c(O)cccc2C1,inactive: -10.5%
23,CCCCN(C)CC(O)Cn1cc(/C=C/C(=O)c2ccc(OC)c(OC)c2)c2ccccc21 (configuration not stated),inactive: -20.3%
24,CCCn1ccc2c(OCC(=O)NCc3ccc(F)cc3)cccc2c1=O,inactive: -14.8%
25,Cc1ccc(-c2nc(S(=O)(=O)c3ccc(Cl)cc3)c(N3CCCCC3)o2)cc1,inactive: -13.5%

row,SMILES,"activity change, positive = activation"
1,COc1ccc(CNC(=O)Cn2nnc(-c3ccccc3F)n2)cc1,inactive: -9.07%
2,CCc1cc2c(cc3c(=O)n(CC(=O)N4CCCCC4)nc(CC)n32)s1,inactive: -2.89%
3,CC(C)(C)C(=O)NCCCC(=O)O,inactive: -6.24%
4,COc1ccc(Cl)cc1C(=O)Nc1ccc2oc(-c3ccc(C(C)(C)C)cc3)nc2c1,inactive: -8.16%
5,CCCSC1=NC2(CCN(C(=O)NC3CCCCC3)CC2)N=C1c1ccccc1,"inactive: -18.2% [at 11.5 µM, percent change from vehicle, -100% = no light]"
6,NC12CC3CC(CC(C3)C1)C2,inactive
7,CC(C)c1nnc(NC(=O)c2nc(SCc3ccc(F)cc3)ncc2Cl)s1,inactive: 3.61%
8,CCCSc1ncc(Cl)c(C(=O)Nc2sc3c(c2C(=O)NCC)CCCC3)n1,inactive: -12.5%
9,Cc1ccc(Cl)cc1N1CCN(C(=O)c2cccn2-c2nnc(N3CCCCC3)s2)CC1,inactive: -28.5%
10,COc1cc(Cl)ccc1OC(=O)c1cn(-c2ccccc2OC)c(=O)c2ccccc12,inactive: -11.5%
11,CC1C(=O)Nc2ccc(S(=O)(=O)Nc3ccccc3Br)cc2NC1=O (configuration not stated),inactive: -5.56%
12,CCC(=O)NC[C@H](Cc1ccc(OCCc2nc(-c3ccccc3)oc2C)cc1)NC(C)=CC(=O)c1ccc(C(F)(F)F)cc1,inactive: -9.39%
13,CC(C)CCNC(=O)c1ccc(Cn2c(SCC(=O)NC(C)C)nc3ccccc3c2=O)cc1,inactive: -16.2%
14,Cc1cc(NC(=O)c2ccc(-c3ccc(Br)cc3)o2)cc(-c2nc3ncccc3o2)c1O,inactive: -1.62%
15,Cc1c(-c2ccccc2)c(=O)oc2c(CN3CCN(C)CC3)c(O)ccc12,inactive: -17.5%
16,Cc1ccc2nc(Cl)c3cc(C(=O)NCCCN4CCC(C)CC4)sc3c2c1,inactive: -3.86%
17,Cc1ccc(C)c(S(=O)(=O)c2nnn3c2nc(NCc2cccs2)c2sccc23)c1,inactive: -49.6%
18,COc1ccc2c(c1)c1c(c(=O)n(-c3ccccc3)c(=O)n1CC(=O)Nc1ccc(F)cc1)n2C,inactive: -15.5%
19,CCc1ccc(-n2c(SCC(=O)NC(C)CC)nc3n[nH]c(C)c3c2=N)cc1 (configuration not stated),inactive: -33.5%
20,COc1ccc(N2CC(NC(=O)c3ccc4c(c3)OCO4)CC2=O)cc1OC (configuration not stated),inactive: -11.1%
21,Cc1ccc(NC(=O)CN(C)S(=O)(=O)c2ccc3c(c2)CCC(=O)N3)c(C)c1,inactive: -6.16%
22,Cc1ccc(CN2CCCn3nc(C(=O)NCc4ccccc4Cl)cc3C2=O)cc1,inactive: -36.6%
